This note sets out measurements from US20120087858A1 (AbbVie / Abbott, published 2012).

The Kd is the concentration at which binding is half-saturated. As usually defined, the koff is a measure of how fast the partners let go of each other. For orientation: kon means the rate constant with which the complex forms.

Test [1] has as its target T1, Recombinant Human TNF-α/TNFSF1A (human, UniProt P01375 partial chain). The experiment in a line: cell-based or functional assay.
For test [2], the target named is T2, Recombinant Human β-NGF (human, UniProt P01138 partial chain). Put plainly: cell-based or functional assay.
The target in test [3] is T1, Recombinant Human TNF-α/TNFSF1A. Put plainly: Biacore SPR. As for the experimental part: (§1) The BIACORE assay (Biacore, Inc, Piscataway, N.J.) determines the affinity of antibodies or DVD-Ig with kinetic measurements of on-rate and off-rate constants. Binding of antibodies or DVD-Ig to a target antigen (for example, a purified recombinant target antigen) is determined by surface plasmon resonance-based measurements with a Biacore® 1000 or 3000 instrument (Biacore® AB, Uppsala, Sweden) using running HBS-EP (10 mM HEPES [pH 7.4], 150 mM NaCl, 3 mM EDTA, and 0.005% surfactant P20) at 25° C. All chemicals are obtained from Biacore® AB (Uppsala, Sweden) or otherwise from a different source as described in the text. For example, approximately 5000 RU of goat anti-mouse IgG, (Fcγ), fragment specific polyclonal antibody (Pierce Biotechnology Inc, Rockford, Ill.) diluted in 10 mM sodium acetate (pH 4.5) is directly immobilized across a CMS research grade biosensor chip using a standard amine coupling kit according to manufacturer's instructions and procedures at 25 μg/ml. Unreacted moieties on the biosensor surface are blocked with ethanolamine. Modified carboxymethyl dextran surface in flowcell 2 and 4 is used as a reaction surface. Unmodified carboxymethyl dextran without goat anti-mouse IgG in flow cell 1 and 3 is used as the reference surface. For kinetic analysis, rate equations derived from the 1:1 Langmuir binding model are fitted simultaneously to association and dissociation phases of all eight injections (using global fit analysis) with the use of Biaevaluation 4.0.1 software. Purified antibodies or DVD-Ig are diluted in HEPES-buffered saline for capture across goat anti-mouse IgG specific reaction surfaces. Antibodies or DVD-Ig to be captured as a ligand (25 μg/ml) are injected over reaction matrices at a flow rate of 5 μl/min. The association and dissociation rate constants, kₒₙ (M⁻¹s⁻) and koff(s⁻¹) are determined under a continuous flow rate of 25 μl/min. Rate constants are derived by making kinetic binding measurements at different antigen concentrations ranging from 10-200 nM. The equilibrium dissociation constant (M) of the reaction between antibodies or DVD-Igs and the target antigen is then calculated from the kinetic rate constants by the following formula: KD=koff/kₒₙ. Binding is recorded as a function of time and kinetic rate constants are calculated.

For test [4], the target named is T2, Recombinant Human β-NGF. Put plainly: Biacore SPR. The protocol:
as §1
For orientation: SPR reads the build-up and loss of mass on a sensor chip optically.

T2 sequence (P01138 122-241 limits assumed): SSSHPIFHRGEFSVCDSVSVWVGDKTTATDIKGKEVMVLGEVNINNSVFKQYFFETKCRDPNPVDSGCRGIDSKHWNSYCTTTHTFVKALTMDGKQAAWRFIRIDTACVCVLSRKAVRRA
T1 sequence (P01375 77-233 limits assumed): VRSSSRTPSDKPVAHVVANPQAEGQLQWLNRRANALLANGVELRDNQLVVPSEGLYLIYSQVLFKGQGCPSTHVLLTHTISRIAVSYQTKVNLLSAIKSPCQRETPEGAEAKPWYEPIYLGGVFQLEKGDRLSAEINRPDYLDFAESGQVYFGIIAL

B1: DVD1484 (bispecific antibody, human IgG1, kappa)
heavy: EVQLQQSGPELVTPGASVKISCKASGYTFTDHYMSWVKQSHGKSLEWIGDINPYSGETTYNQKFKGTATLTVDKSSSIAYMEIRGLTSEDSAVYYCARDDYDASPFAYWGQGTLVTVSAASTKGPEVQLVESGGGLIQPGGSLRLSCAASGFTVSRNYMSWVRQAPGKGLEWVSVIYSGDRTYYADSVKGRFTISRDNSKNTLYLQMNSLRAEDTAVYYCARGEGGFDYWGQGTLVTVSS[human IgG1 constant region left out here]
light: DVQMIQSPSSLSASLGDIVTMTCQASQGTSINLNWFQQKPGKAPKLLIYGSSNLEDGVPSRFSGSRYGTDFTLTISSLEDEDLATYFCLQHSYLPYTFGGGTKLEIKRTVAAPSVFIFPPEIVMTQSPATLSVSPGERATLSCRASQSVSSNLAWYQQKPGQAPRLLIHGASIRATGLPARFSGSGSGTEFTLTISSLQSEDFAVYYCQQYNYWWTFGQGTKVEIKRTVAAPSVFIFPPSDEQLKSGTASVVCLLNNFYPREAKVQWKVDNALQSGNSQESVTEQDSKDSTYSLSSTLTLSKADYEKHKVYACEVTHQGLSSPVTKSFNRGEC
As to B1, the “TNFα Neutralization Assay EC50 (L929 cells)” value (“TNFα Neutralization Assay EC50” for short) in test [1] came out at 0.219 nM.

B2: DVD1486 (bispecific antibody, human IgG1, kappa)
heavy: QVQLQESGPGLVKPSETLSLTCTVSGFSLIGYDLNWIRQPPGKGLEWIGIIWGDGTTDYNSAVKSRVTISKDTSKNQFSLKLSSVTAADTAVYYCARGGYWYATSYYFDYWGQGTLVTVSSASTKGPEVQLVESGGGLIQPGGSLRLSCAASGFTVSRNYMSWVRQAPGKGLEWVSVIYSGDRTYYADSVKGRFTISRDNSKNTLYLQMNSLRAEDTAVYYCARGEGGFDYWGQGTLVTVSS[human IgG1 constant region left out here]
light: DIQMTQSPSSLSASVGDRVTITCRASQSISNNLNWYQQKPGKAPKLLIYYTSRFHSGVPSRFSGSGSGTDFTFTISSLQPEDIATYYCQQEHTLPYTFGQGTKLEIKRTVAAPSVFIFPPEIVMTQSPATLSVSPGERATLSCRASQSVSSNLAWYQQKPGQAPRLLIHGASIRATGLPARFSGSGSGTEFTLTISSLQSEDFAVYYCQQYNYWWTFGQGTKVEIKRTVAAPSVFIFPPSDEQLKSGTASVVCLLNNFYPREAKVQWKVDNALQSGNSQESVTEQDSKDSTYSLSSTLTLSKADYEKHKVYACEVTHQGLSSPVTKSFNRGEC
As to B2, the “NGF Inhibition Assay EC50 (TF-1 cell proliferation)” value (shortened to “NGF Inhibition Assay EC50”) with Recombinant Human β-NGF [2] was determined as 0.076 nM. The “TNFα Neutralization Assay EC50” value in test [1] worked out at 0.363 nM.

B3: DVD1526 (bispecific antibody, human IgG1, kappa)
heavy: EVQLQQSGPELVTPGASVKISCKASGYTFTDHYMSWVKQSHGKSLEWIGDINPYSGETTYNQKFKGTATLTVDKSSSIAYMEIRGLTSEDSAVYYCARDDYDASPFAYWGQGTLVTVSAASTKGPSVFPLAPEVQLVESGGGLIQPGGSLRLSCAASGFTVSRNYMSWVRQAPGKGLEWVSVIYSGDRTYYADSVKGRFTISRDNSKNTLYLQMNSLRAEDTAVYYCARGEGGFDYWGQGTLVTVSS[human IgG1 constant region left out here]
light: DVQMIQSPSSLSASLGDIVTMTCQASQGTSINLNWFQQKPGKAPKLLIYGSSNLEDGVPSRFSGSRYGTDFTLTISSLEDEDLATYFCLQHSYLPYTFGGGTKLEIKRTVAAPEIVMTQSPATLSVSPGERATLSCRASQSVSSNLAWYQQKPGQAPRLLIHGASIRATGLPARFSGSGSGTEFTLTISSLQSEDFAVYYCQQYNYWWTFGQGTKVEIKRTVAAPSVFIFPPSDEQLKSGTASVVCLLNNFYPREAKVQWKVDNALQSGNSQESVTEQDSKDSTYSLSSTLTLSKADYEKHKVYACEVTHQGLSSPVTKSFNRGEC
On to B3, for which the “TNFα Neutralization Assay EC50” value in test [1] came out at 0.059 nM.

B4: DVD1519 (bispecific antibody, human IgG1, kappa)
heavy: QVQLVESGGGVVQPGRSLRLSCAASGFTFSSYDMHWVRQAPGKGLEWVAVIWSDGSIKYYADSVKGRFTISRDNSKNTLYLQMNSLRAEDTAVYYCAREVESAMGGFYYNGMDVWGQGTTVTVSSASTKGPSVFPLAPQVQLQESGPGLVKPSETLSLTCTVSGFSLIGYDLNWIRQPPGKGLEWIGIIWGDGTTDYNSAVKSRVTISKDTSKNQFSLKLSSVTAADTAVYYCARGGYWYATSYYFDYWGQGTLVTVSS[human IgG1 constant region left out here]
light: DIQMTQSPSSLSASVGDRVTITCRASQGIRIDLGWYQQKPGKAPKRLIYAASTLQSGVPSRFSGSGSGTEFIFTISSLQPEDFASYYCLQHKSYPLTFGGGTKVEIKRTVAAPDIQMTQSPSSLSASVGDRVTITCRASQSISNNLNWYQQKPGKAPKLLIYYTSRFHSGVPSRFSGSGSGTDFTFTISSLQPEDIATYYCQQEHTLPYTFGQGTKLEIKRTVAAPSVFIFPPSDEQLKSGTASVVCLLNNFYPREAKVQWKVDNALQSGNSQESVTEQDSKDSTYSLSSTLTLSKADYEKHKVYACEVTHQGLSSPVTKSFNRGEC
notes: DVD-Ig; linker set 3; also called DVD1519H; DVD1519L
Consider B4, for which, in test [3], the Kd came out at 0.02 nM, the koff amounted to 4.2e-05 s⁻¹ and the kon was 2.1e+06 M⁻¹ s⁻¹. In addition, in the test with Recombinant Human β-NGF [4], the Kd was under 0.01 nM, the koff is under 1e-06 s⁻¹ and the kon amounted to 110000 M⁻¹ s⁻¹. In addition, the “NGF Inhibition Assay EC50” value in the test with Recombinant Human β-NGF [2] was determined as 1.95 nM. Also, the “TNFα Neutralization Assay EC50” value in test [1] amounted to 0.0079 nM.

B5: DVD1477 (bispecific antibody, human IgG1, kappa)
heavy: QVQLVESGGGVVQPGRSLRLSCAASGFTFSSYDMHWVRQAPGKGLEWVAVIWSDGSIKYYADSVKGRFTISRDNSKNTLYLQMNSLRAEDTAVYYCAREVESAMGGFYYNGMDVWGQGTTVTVSSASTKGPQVQLQESGPGLVKPSETLSLTCTVSGFSLIGYDLNWIRQPPGKGLEWIGIIWGDGTTDYNSAVKSRVTISKDTSKNQFSLKLSSVTAADTAVYYCARGGYWYATSYYFDYWGQGTLVTVSS[human IgG1 constant region left out here]
light: DIQMTQSPSSLSASVGDRVTITCRASQGIRIDLGWYQQKPGKAPKRLIYAASTLQSGVPSRFSGSGSGTEFIFTISSLQPEDFASYYCLQHKSYPLTFGGGTKVEIKRTVAAPSVFIFPPDIQMTQSPSSLSASVGDRVTITCRASQSISNNLNWYQQKPGKAPKLLIYYTSRFHSGVPSRFSGSGSGTDFTFTISSLQPEDIATYYCQQEHTLPYTFGQGTKLEIKRTVAAPSVFIFPPSDEQLKSGTASVVCLLNNFYPREAKVQWKVDNALQSGNSQESVTEQDSKDSTYSLSSTLTLSKADYEKHKVYACEVTHQGLSSPVTKSFNRGEC
notes: DVD-Ig; linker set 2; also called DVD1477H; DVD1477L
For B5, in test [3], the Kd was 0.015 nM, the koff turned out to be 3.8e-05 s⁻¹ and the on-rate (kon) was 2.5e+06 M⁻¹ s⁻¹. In addition, in the test with Recombinant Human β-NGF [4], the equilibrium dissociation constant (Kd) is under 0.0063 nM, the koff was under 1e-06 s⁻¹ and the kon is 160000 M⁻¹ s⁻¹. Besides, the “NGF Inhibition Assay EC50” value with Recombinant Human β-NGF [2] turned out to be 0.038 nM. In addition, the “TNFα Neutralization Assay EC50” value in test [1] worked out at 0.009 nM.

B6: DVD1501 (bispecific antibody, human IgG1, kappa)
heavy: QVQLKESGPGLVAPSQSLSITCTVSGFSLTDYGVNWVRQPPGKGLEWLGMIWGDGSTDYDSTLKSRLSISKDNSKSQIFLKMNSLQTDDTARYYCAREWHHGPVAYWGQGTLVTVSAASTKGPSVFPLAPQVQLQESGPGLVKPSETLSLTCTVSGFSLIGYDLNWIRQPPGKGLEWIGIIWGDGTTDYNSAVKSRVTISKDTSKNQFSLKLSSVTAADTAVYYCARGGYWYATSYYFDYWGQGTLVTVSS[human IgG1 constant region left out here]
light: DIVMTQSHKFMSTTVGDRVSITCKASQAVSSAVAWYQQKPGQSPKLLIYWASTRHTGVPDRFTGSGSVTDFTLTIHNLQAEDLALYYCQQHYSTPFTFGSGTKLEIKRTVAAPDIQMTQSPSSLSASVGDRVTITCRASQSISNNLNWYQQKPGKAPKLLIYYTSRFHSGVPSRFSGSGSGTDFTFTISSLQPEDIATYYCQQEHTLPYTFGQGTKLEIKRTVAAPSVFIFPPSDEQLKSGTASVVCLLNNFYPREAKVQWKVDNALQSGNSQESVTEQDSKDSTYSLSSTLTLSKADYEKHKVYACEVTHQGLSSPVTKSFNRGEC
In the case of B6, the “TNFα Neutralization Assay EC50” value in test [1] was determined as 0.195 nM.
